The other results are listed elsewhere or left out. At the low end of the ranking, values are background and their order means little.

The assay concerns the target T1, GST-Rok (full length) (UniProt O34857).
T1 sequence: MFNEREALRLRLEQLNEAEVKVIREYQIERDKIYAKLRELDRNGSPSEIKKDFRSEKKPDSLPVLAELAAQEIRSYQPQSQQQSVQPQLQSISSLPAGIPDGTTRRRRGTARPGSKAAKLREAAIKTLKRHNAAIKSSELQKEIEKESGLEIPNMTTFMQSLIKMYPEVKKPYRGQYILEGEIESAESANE
The assay can be described thus: protein binding microarray.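 Further: rank score from −0.5 (least bound) to 0.5 (best bound).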 The conditions noted are these: Rok is a gene silencer of Bacillus subtilis; high values mean tight binding; most listed sequences are background and not binding sites; double strand, one strand shown.
ACTTCTAG yielded a binding signal of 0.217 E-score.

CATGTGTA registered a binding signal of 0.204 E-score.

Take CGCGGTTC: the binding signal was -0.163 E-score.

With ACGTTCCC, the binding signal is -0.312 E-score.

For CACACGTC, the binding signal was -0.205 E-score.

CCCCTGCA came in with a binding signal of -0.381 E-score.

Take CTGTCTGA: the binding signal was -0.191 E-score.

The sequence ACCAAGTG came in with a binding signal of -0.0317 E-score.

TTACATAA gave a binding signal of 0.183 E-score.

On to GGGGCTGA, for which the binding signal is -0.459 E-score.

The sequence CAGATATA showed a binding signal of 0.165 E-score.

In turn, ATATTTTC came in with a binding signal of 0.326 E-score.

On to AAAACTGC, for which the binding signal was -0.0878 E-score.

Turning to GGAAAGAC, the binding signal was -0.12 E-score.

In turn, GGGCGCCA gave a binding signal of -0.355 E-score.

In turn, AACCTTCG registered a binding signal of -0.0262 E-score.

In turn, CAGCGTTA had a binding signal of 0.0195 E-score.

AATGAAAA had a binding signal of -0.0795 E-score.

Consider GGTTGGAC, for which the binding signal was -0.145 E-score.

In the case of ACCGAATG, the binding signal is 0.0417 E-score.

For GGGTCAAA, the binding signal is -0.145 E-score.

Consider TGCGTAAA, for which the binding signal was 0.0234 E-score.

Regarding AATTGCAG, the binding signal is -0.158 E-score.

ATCCATGC had a binding signal of -0.0231 E-score.

With ACTTAACA, the binding signal was found to be 0.076 E-score.

As for ATAGCTAC, the binding signal was 0.333 E-score.

In the case of ACTAACCT, the binding signal was found to be 0.108 E-score.

ATTATGAA displayed a binding signal of 0.272 E-score.

On to TCCGTTAA, for which the binding signal is -0.0884 E-score.

GTTAATGA had a binding signal of 0.132 E-score.

For GCACCGGA, the binding signal is -0.144 E-score.

The sequence ACTTTCGA displayed a binding signal of -0.0862 E-score.

For CACCGACC, the binding signal is -0.211 E-score.

On to AATCCTAG, for which the binding signal was -0.0761 E-score.

AGTCACCG came in with a binding signal of 0.0567 E-score.

The sequence GGAGTGGA had a binding signal of -0.248 E-score.

Consider AAAGCGCT, for which the binding signal was -0.129 E-score.

In turn, CTAATGAC returned a binding signal of -0.05 E-score.

In the case of AAATTTTC, the binding signal was 0.18 E-score.

On to CGACAATC, for which the binding signal came out at 0.0527 E-score.

As for AAAGCGAT, the binding signal is -0.0865 E-score.

The sequence TGCGTCCA displayed a binding signal of 0.0832 E-score.

For the sequence CAGCAGGG, the binding signal was -0.193 E-score.

Sequence CGGCATTC showed a binding signal of -0.226 E-score.

For the sequence TAACCTGA, the binding signal came out at 0.0191 E-score.

ACTATCCG yielded a binding signal of 0.163 E-score.

Regarding ATCTGTGC, the binding signal is 0.0954 E-score.

As to CAGCCAAA, the binding signal was -0.0376 E-score.

As for AGATTAAT, the binding signal came out at 0.346 E-score.

In turn, TCAATCAA showed a binding signal of -0.0718 E-score.

Take CTGGTATA: the binding signal stood at 0.303 E-score.

Regarding ACGGCCGC, the binding signal is -0.192 E-score.

In the case of ATTTTGCA, the binding signal stood at 0.0497 E-score.

ATCCCCCA gave a binding signal of -0.453 E-score.

Sequence CAAGTCAA yielded a binding signal of 0.171 E-score.

Turning to ATCAAAGA, the binding signal turned out to be 0.172 E-score.

GCACCGGC: the binding signal is -0.325 E-score.

In turn, CCCGTCCC came in with a binding signal of -0.284 E-score.

In turn, ACCGTTTA gave a binding signal of 0.166 E-score.

The sequence ACGTGGTG came in with a binding signal of -0.258 E-score.

As for GGTGGCCA, the binding signal was -0.244 E-score.

ATGCCCGA returned a binding signal of -0.287 E-score.

For CAGGGCCC, the binding signal was -0.376 E-score.

CTGCCGGC had a binding signal of -0.261 E-score.

Regarding ATCTTTCA, the binding signal came to 0.0379 E-score.

Sequence CTTAGAAG gave a binding signal of -0.0458 E-score.

CGTGTAGC had a binding signal of -0.103 E-score.

For the sequence CGTGCTAC, the binding signal came to 0.161 E-score.

On to AAGTCCCC, for which the binding signal was -0.186 E-score.

Regarding GTTTGACA, the binding signal was -0.14 E-score.

For the sequence AATAAACA, the binding signal turned out to be 0.161 E-score.

In the case of ACTGGCAC, the binding signal is -0.184 E-score.

Sequence AAGGCCGC had a binding signal of -0.29 E-score.

Sequence GCGTTGCA gave a binding signal of -0.0669 E-score.

For CCATGAAC, the binding signal is -0.111 E-score.

As to ACGTATAA, the binding signal turned out to be 0.244 E-score.

CGGCGCCC registered a binding signal of -0.171 E-score.

Consider ATTAGTGC, for which the binding signal is 0.277 E-score.

AGGAGCGC displayed a binding signal of -0.198 E-score.

In the case of ACTCTTGG, the binding signal is -0.0978 E-score.

As to CAATTGCC, the binding signal is -0.0385 E-score.

As to ACTCATCG, the binding signal is -0.0141 E-score.

Sequence ATGCCGTA had a binding signal of 0.0551 E-score.

AGCGGTAC displayed a binding signal of -0.166 E-score.

Consider CTCTACTC, for which the binding signal was 0.00346 E-score.

As to AAGTTTGG, the binding signal was -0.00854 E-score.

For GAGTAATC, the binding signal came to 0.0112 E-score.

In the case of CAACCGAG, the binding signal was -0.0698 E-score.

For the sequence AAAGCGTA, the binding signal stood at 0.00405 E-score.

ATATACAC: the binding signal amounted to 0.339 E-score.

TCCATAAA returned a binding signal of 0.119 E-score.

Consider ACACAATA, for which the binding signal came to 0.151 E-score.

Consider CCTGCCAA, for which the binding signal was -0.0369 E-score.

AGCTTTAT showed a binding signal of 0.0387 E-score.

The sequence AGACACTA had a binding signal of 0.125 E-score.

Sequence CTCCAAGA returned a binding signal of -0.0998 E-score.

ACGTCCCA gave a binding signal of -0.173 E-score.

ACCCGGAC showed a binding signal of -0.258 E-score.

CACAGCAG returned a binding signal of -0.275 E-score.

Consider ATTCCAAG, for which the binding signal was found to be 0.139 E-score.

With AAGTTGGA, the binding signal was -0.00588 E-score.

The sequence ACACCGGC gave a binding signal of -0.293 E-score.

Sequence AATGGTCT registered a binding signal of -0.0499 E-score.

For the sequence ACGCTGTG, the binding signal was -0.184 E-score.

Sequence TGCTCAAA gave a binding signal of -0.0504 E-score.

The sequence ACAAACGT registered a binding signal of 0.127 E-score.

Take ATCGGCCA: the binding signal was -0.041 E-score.

In the case of AGCATGCC, the binding signal was -0.0856 E-score.

AGTTATTC returned a binding signal of 0.069 E-score.

GGGTTGGA returned a binding signal of -0.22 E-score.

Take TGGCACAA: the binding signal is -0.172 E-score.

GTCCGGCA registered a binding signal of -0.0982 E-score.

Sequence GCCACATA yielded a binding signal of -0.0655 E-score.

TGGGACCA registered a binding signal of -0.221 E-score.

In the case of AATTGTGA, the binding signal was 0.214 E-score.

With GCGTAAAA, the binding signal is 0.102 E-score.

In the case of GCATTACA, the binding signal was 0.129 E-score.

The sequence AGGGTCTA showed a binding signal of -0.159 E-score.

ACCTTCTC returned a binding signal of -0.145 E-score.

CGATTGCC gave a binding signal of -0.132 E-score.

Sequence ACTACGGC had a binding signal of 0.107 E-score.

Sequence AAGATTGA had a binding signal of 0.034 E-score.

AGTAAACT showed a binding signal of 0.14 E-score.

Sequence AATGCAGT gave a binding signal of -0.0393 E-score.

TACTTCTA had a binding signal of 0.36 E-score.

With CTCATTAC, the binding signal amounted to 0.0391 E-score.

As for AGTAGTAG, the binding signal came to 0.349 E-score.

The sequence CTCTTGGA gave a binding signal of -0.196 E-score.

ACGGATAT yielded a binding signal of 0.14 E-score.

CCCTGACC gave a binding signal of -0.338 E-score.

GGCCGAAA gave a binding signal of -0.147 E-score.

GGGATTTA: the binding signal was determined as 0.119 E-score.

Consider ATTGGCGA, for which the binding signal is -0.00169 E-score.

Consider ATCTAGAC, for which the binding signal amounted to 0.113 E-score.

In turn, GAGCCTAC registered a binding signal of -0.162 E-score.

For the sequence GCAATGGA, the binding signal is -0.149 E-score.

In turn, CTCTCGTA gave a binding signal of -0.0549 E-score.

GAATTTTA gave a binding signal of 0.228 E-score.

The sequence AAGTGCTG came in with a binding signal of -0.255 E-score.

Sequence CGGTGCGA came in with a binding signal of -0.222 E-score.

On to CTCAAGCA, for which the binding signal is -0.0872 E-score.

In turn, GCTCAATA had a binding signal of 0.0528 E-score.

For ATACACTG, the binding signal is 0.127 E-score.

With GGGCGTTA, the binding signal was -0.232 E-score.

Consider AAAACCAA, for which the binding signal came out at 0.129 E-score.

GTTGCTAA displayed a binding signal of 0.0781 E-score.

Sequence ACAAAGAG yielded a binding signal of 0.0115 E-score.

The sequence GTCCTGTA registered a binding signal of -0.0798 E-score.

Turning to AGGTTACA, the binding signal was 0.0709 E-score.

Regarding AGGTGTCC, the binding signal was -0.158 E-score.

ATGGTTTG: the binding signal was determined as 0.06 E-score.

The sequence ATCAGGAA yielded a binding signal of 0.214 E-score.

Sequence GATGACGA displayed a binding signal of -0.162 E-score.

Sequence CAAGGCTC had a binding signal of -0.369 E-score.

In the case of AATCGGAG, the binding signal is -0.0442 E-score.

Regarding ACACTTAT, the binding signal was 0.194 E-score.

As to CGGCAGGC, the binding signal is -0.392 E-score.

The sequence GAGACTCA came in with a binding signal of -0.268 E-score.

With CCATAATA, the binding signal was 0.116 E-score.

The sequence ATGAGATG registered a binding signal of -0.0269 E-score.

In turn, AGGTTCAA had a binding signal of 0.0184 E-score.

The sequence CGCTGATA registered a binding signal of -0.128 E-score.

GCAATCCA: the binding signal is -0.0776 E-score.

ATCTCGCA showed a binding signal of 0.0378 E-score.

In turn, AAACTGAA had a binding signal of -0.0353 E-score.

For the sequence AGAACCAC, the binding signal was found to be 0.0141 E-score.

As to CATCGCGA, the binding signal was determined as 0.0993 E-score.

AGTATATA: the binding signal came out at 0.451 E-score.

Sequence GACCTACC gave a binding signal of -0.0238 E-score.

CTATGGCA registered a binding signal of -0.0358 E-score.

Turning to CGATGCAC, the binding signal is 0.0501 E-score.

In turn, CTTAGCTC showed a binding signal of -0.0364 E-score.
